Data: PubChem BioAssay AID1347073 (National Center for Advancing Translational Sciences (NCATS), 2019)
Out of some 45,000 compounds screened, about 200 (0.44%) were called active. Inconclusive results, whose numbers are uncertain, are shown with a selection of clear calls. Calls follow the shape of the dose curve; as a rule, active = well fitted activation curve with a large enough effect; inconclusive = small, poorly fitted or top-dose-only effect; inactive = no such curve, though single readings can be large or run the other way. Potencies beside an inconclusive call are fits to weak or partial responses and may not hold up.

Assay: qHTS of TDP-43 Inhibitors: NCGC Sytravon Library Screen; also: nearly all actives have a fitted effect of over 55% in size; as to growth rescue (activation): 0% is about no effect
Settings: yeast TDP-43 toxicity rescue, BacTiter-Glo growth, 24 h; growth rescue (activation): at 46.1 µM (top of the series)
Procedure, shortened: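 TDP-43-expressing yeast, pregrown in raffinose, seeded at OD600 0.02 in galactose medium with compound for 24 hr at 30 deg C. Growth read by BacTiter-Glo luminescence, so rescue of toxicity appears as activation.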
Potency is read from the fitted curve at half-maximal effect; tags tell the direction and shape of the fitted curve.

Row | SMILES | Potency | growth rescue (activation)
1 | CC(=O)N1CCN(CCS(=O)(=O)c2cc(Cl)ccc2Cl)CC1 | inconclusive: 15.8 µM [activator, partial curve, poor fit] | 
2 | C/C(=N\NC(=S)NC1CCCCC1)c1ccc(C)o1 | inconclusive: 35.5 µM [activator, single point] | 
3 | O=C(Nc1cc2c(cc1[N+](=O)[O-])OCCO2)c1cccnc1 |  | inactive: -1.12%
4 | Cc1ccccc1OCc1nc2ccccc2c(=O)n1/N=C/c1ccco1 | inconclusive: 12.6 µM [activator, single point] | 
5 | CC(C)(C)OC(=O)NCCCCCc1nnc(SCc2c(F)cccc2Cl)o1 | inconclusive: 22.4 µM [activator, single point] | 
6 | O=C(CCl)N1c2ccccc2OCC1c1ccccc1 (centres undefined) | inconclusive: 17.8 µM [activator, partial curve, poor fit] | 
7 | O=C(CN(Cc1ccco1)C(=O)c1ccc(F)cc1)Nc1ccccc1Br | inconclusive: 10 µM [activator, partial curve, poor fit] | 
8 | Cc1ccc(/C=C/C(=O)OCC(=O)NCCN2C(=O)CSC2=O)cc1 |  | inconclusive: -45.3% [activator]
9 | CC(CN1CCOCC1)OC(=O)CCc1ccccc1 (centres undefined) |  | inactive: 9.84%
10 | CC(C)CCn1c(=O)[nH]c2ccccc21 | inconclusive: 17.8 µM [activator, single point] | 
11 | Cc1ccccc1-c1cc2nc(NCCCN(C)C)n(C)c(=O)c2s1 |  | inactive: 3.42%
12 | O=C(CNC(=O)c1ccccc1Br)N/N=C\c1cc([N+](=O)[O-])cc(Br)c1O | inconclusive: 7.08 µM [activator, partial curve, poor fit] | 
13 | COc1ccc(Cl)cc1NC(=O)CNc1ccc(F)cc1C | inconclusive: 11.2 µM [activator, partial curve, poor fit] | 
14 | CN(Cc1ccccc1)CC(O)COc1ccc(CNCc2ccc(Cl)s2)cc1 (centres undefined) |  | inactive: 7.43%
15 | Cn1c(=O)c(=O)n(C)c2cc(S(=O)(=O)N3CCCC3C(=O)NCc3cccnc3)ccc21 (centres undefined) | inconclusive: 35.5 µM [activator, partial curve, poor fit] | 
16 | O=C(CSCc1ccco1)c1cccs1 | inconclusive: 14.1 µM [activator, partial curve, poor fit] | 
17 | CC(C)C(=O)N1CCN(c2ccccc2NC(=O)c2ccc(Br)o2)CC1 |  | inconclusive: 34.4% [activator]
18 | Cc1ccc(S(=O)(=O)N(CC(=O)NCCSc2ccccn2)c2ccc(C)c(C)c2)cc1 | inconclusive: 25.1 µM [activator, partial curve, poor fit] | 
19 | C/C(=N\Nc1ccc(C(=O)O)cc1)c1ccc2c(c1)Nc1ccccc1S2 | active: 11.2 µM | 
20 | CC(=O)Nc1ccc(CN(C)c2c(C)nc3ccc(C(=O)NCCc4ccccn4)cn23)cc1 |  | inactive: 14.7%
21 | CCOc1ccccc1N1CCN(C(=O)CNC(=O)c2sc3ccccc3c2Cl)CC1 | inconclusive: 20 µM [activator, single point] | 
22 | CSc1ccccc1C(=O)NCCSc1ccc(C)cc1 | inconclusive: 11.2 µM [activator, partial curve, poor fit] | 
23 | Cc1ccccc1NC(=O)CNc1ccc(Cl)c(C(F)(F)F)c1 | inconclusive: 22.4 µM [activator, partial curve, poor fit] | 

Row | SMILES | Potency | growth rescue (activation)
24 | COc1ccc(-c2[nH]ncc2C(=O)NCc2ccccc2C)cc1 |  | inactive: 17.4%
25 | CC(C)(C)c1ccccc1NC(=O)CN1C(=O)NC2(CCCC2)C1=O |  | inactive: -20.9%
26 | COc1ccc(CC(=O)O/N=C(\N)c2cccc([N+](=O)[O-])c2)cc1 |  | inactive: 24.5%
27 | COc1ccc(-c2noc(-c3nnn(-c4ccc(C(C)C)cc4)c3C)n2)cc1OC |  | inactive: 12.4%
28 | COc1ccc(N2C(=O)C(C)(C)C2c2c(O)ccc3ccccc23)cc1 (centres undefined) | inconclusive: 28.2 µM [activator, single point] | 
29 | O=C(CSc1nc2ccccc2[nH]1)c1ccc(Cl)s1 | inconclusive: 12.6 µM [activator, partial curve, poor fit] | 
30 | CC(C)CNC(=O)COc1ccccc1[N+](=O)[O-] |  | inactive: -22.3%
31 | O=C(/C=C/c1ccc(N2CCCCC2)c([N+](=O)[O-])c1)c1ccc(O)cc1 | inconclusive: 35.5 µM [activator, single point] | 
32 | CCOC(=O)C1(C)CCCN(C(=O)C(c2ccccc2)c2ccccc2)C1 (centres undefined) |  | inactive: 7.36%
33 | Cc1cccc(C(=O)N2CCC(Cc3ccccc3)CC2)c1[N+](=O)[O-] | inconclusive: 15.8 µM [activator, partial curve, poor fit] | 
34 | COc1ccccc1-c1c(C)nn2c(-c3ccccc3)cc(C)nc12 | inconclusive: 15.8 µM [activator, single point] | 
35 | COc1cc(CCC(=O)N2CCN(c3cccc(C)c3C)CC2)cc(OC)c1OC | inconclusive: 35.5 µM [activator, single point] | 
36 | O=C(Oc1ccccc1C(=O)Nc1ccccc1)c1ccccc1Br | inconclusive: 17.8 µM [activator, partial curve, poor fit] | 
37 | COc1cc(CCC(=O)N2CCN(S(=O)(=O)c3ccc(C)cc3)CC2)cc(OC)c1OC |  | inactive: -6.78%
38 | COc1cc2c(cc1OC)CN(C(=S)Nc1ccc(C)cc1C)CC2 | inconclusive: 11.2 µM [activator, partial curve] | 
39 | CCCc1cc(C(=O)Nc2cccc3ccccc23)n(C)n1 | inconclusive: 12.6 µM [activator, single point] | 
40 | CCNC(=O)Nc1ccc(-n2nc(C)c(C(=O)OCC)c2C)nc1 |  | inactive: 5.44%
41 | O=C(CN(Cc1ccccc1)S(=O)(=O)c1ccc(F)cc1)NCc1cccnc1 |  | inactive: 15.6%
42 | Cc1ccc(-c2cc(C(=O)O)n(Cc3ccccc3)n2)cc1 | inconclusive: 31.6 µM [activator, single point] | 
43 | O=C(Nc1ccc(C(=O)O)cc1)/C(=C/c1ccc2c(c1)OCO2)NC(=O)c1cccc(Br)c1 |  | inactive: -3.25%
44 | COC(=O)c1sc(NC(=O)C(C)c2ccccc2)nc1C (centres undefined) | inconclusive: 22.4 µM [activator, single point] | 
45 | Cc1cccc(-c2nnc3n2N=C(c2ccccc2Br)CS3)c1 | inconclusive: 25.1 µM [activator, single point] | 
46 | Cc1ccc(NC(=O)C2CCCN2S(=O)(=O)c2ccc3c(c2)n(C)c(=O)c(=O)n3C)c(C)c1 (centres undefined) | inconclusive: 35.5 µM [activator, single point] | 

Row | SMILES | Potency | growth rescue (activation)
47 | CCOc1cccc(NC(=O)Cc2cccs2)c1 | inconclusive: 12.6 µM [activator, partial curve, poor fit] | 
48 | COc1cccc(C(N)c2nc(-c3cc(F)cc(F)c3)cs2)c1 (centres undefined) |  | inactive: 18.1%
49 | C=CCN(Cc1nc(-c2ccccc2)no1)C(=O)c1ccoc1C | inconclusive: 10 µM [activator, partial curve, poor fit] | 
50 | Cc1ccc(CNC(=O)c2cncc(Br)c2)cc1 | inconclusive: 35.5 µM [activator, single point] | 
51 | S=c1[nH]nc(-c2ccc(Cl)cc2)n1/N=C/C=C/c1ccco1 | inconclusive: 15.8 µM [activator, partial curve, poor fit] | 
52 | CC(C)CSc1nc2ccccc2c(=O)[nH]1 | inconclusive: 3.55 µM [activator, partial curve, poor fit] | 
53 | COc1cccc(/C=N/Nc2ncnc(Cl)c2N)c1O | inconclusive: 35.5 µM [activator, single point] | 
54 | COc1ccccc1CN(C)C(=O)c1cc2ccccc2o1 | inconclusive: 25.1 µM [activator, partial curve, poor fit] | 
55 | O=C(Nc1ccc(Oc2cccnc2)cc1)c1ccccc1Cl |  | inactive: 20.4%
56 | O=C(CSc1nnc(COc2ccccc2)n1-c1ccccc1)c1cccs1 | inconclusive: 31.6 µM [activator, single point] | 
57 | COc1ccc(Cl)cc1NC(=S)Nc1ccccc1F | inconclusive: 28.2 µM [activator, single point] | 
58 | Cc1noc(C)c1-c1ccc(C(=O)NCc2ccccc2)c2occc12 |  | inconclusive: 33.3% [activator]
59 | O=c1[nH]c(CSc2ncnc3sccc23)nc2cc(C(F)(F)F)ccc12 | inconclusive: 35.5 µM [activator, single point] | 
60 | Cc1cc(S(=O)(=O)Nc2cccc(Cl)c2)c(C)s1 | inconclusive: 12.6 µM [activator, single point] | 
61 | COc1ccc(/C(N)=N/OC(=O)c2cccc([N+](=O)[O-])c2)cc1 | inconclusive: 14.1 µM [activator, single point] | 
62 | Cc1cccc(NC(=O)c2ccc(S(=O)(=O)N(C)c3ccccc3)cc2)n1 | inconclusive: 20 µM [activator, single point] | 
63 | CCOc1ccccc1Oc1cn[nH]c1-c1ccc(OC)cc1O | active: 15.8 µM | 
64 | CC(=O)Nc1cccc(-c2csc(C(C)(O)c3ccccc3)n2)c1 (centres undefined) |  | inconclusive: 30.6% [activator]
65 | CCCN(S(=O)(=O)c1ccccc1F)S(=O)(=O)c1ccccc1Br | inconclusive: 20 µM [activator, single point] | 
66 | COc1ccc(N2CCN(C(=O)CNC(=O)c3nn(-c4ccc(OC)cc4)c(=O)c4ccccc34)CC2)cc1 | inconclusive: 22.4 µM [activator, single point] | 
67 | CC(C)(C)NC(=O)c1ccc(COc2ccc(Cl)cc2Cl)o1 | inconclusive: 12.6 µM [activator, single point] | 
68 | Cc1ccc(C)c(/C=N/NC(=S)NC(C)C)c1 | inconclusive: 2 µM [activator, full curve] | 
69 | CCC(=O)Nc1ccc(Cl)c(NC(=O)c2c(OC)cccc2OC)c1 |  | inactive: -7.75%
